# According to the supplement of paper PMC8728848:
# Some of the results follow.
# How the values were obtained:
# Assay in all cases: glycan array binding signal (z-score within array); higher = stronger binding
# Details in all cases: glycan notation: IUPAC condensed, linker removed
# [1] = biological target: Neu5Ac(a2-3)Gal(b1-4)GlcNAc(b1-6)GalNAc
# In short: (§1)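 The binding signal is a Z-score computed within each array and averaged over linkers. Arrays of the same protein sequence at different concentrations or buffers were also averaged together. Data originate from 3228 arrays in the Consortium for Functional Glycomics database, kept only where the protein sequence was available.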
# [2] = biological target: Neu5Ac(a2-3)Gal(b1-4)GlcNAc(b1-6)[Gal(b1-3)]GalNAc
# In short: as §1
# [3] = biological target: Neu5Ac(a2-3)Gal(b1-4)GlcNAc(b1-6)[Neu5Ac(a2-3)Gal(b1-3)]GalNAc
# In short: as §1
# [4] = biological target: Neu5Ac(a2-3)Gal(b1-4)GlcNAc6S
# In short: as §1
# [5] = biological target: Neu5Ac(a2-3)Gal(b1-4)[Fuc(a1-3)]GlcNAc
# In short: as §1
# [6] = biological target: Neu5Ac(a2-3)Gal(b1-4)[Fuc(a1-3)]GlcNAc(b1-2)Man
# In short: as §1
# [7] = biological target: Neu5Ac(a2-3)Gal(b1-4)[Fuc(a1-3)]GlcNAc(b1-3)Gal
# In short: as §1
# [8] = biological target: Neu5Ac(a2-3)Gal(b1-4)[Fuc(a1-3)]GlcNAc(b1-3)Gal(b1-4)GlcNAc
# In short: as §1
# [9] = biological target: Neu5Ac(a2-3)Gal(b1-4)[Fuc(a1-3)]GlcNAc(b1-3)Gal(b1-4)[Fuc(a1-3)]GlcNAc(b1-3)Gal(b1-4)[Fuc(a1-3)]GlcNAc
# In short: as §1
# [10] = biological target: Neu5Ac(a2-3)Gal(b1-4)[Fuc(a1-3)]GlcNAc(b1-3)GalNAc
# In short: as §1
# [11] = biological target: Neu5Ac(a2-3)Gal(b1-4)[Fuc(a1-3)]GlcNAc(b1-6)[Gal(b1-3)]GalNAc
# In short: as §1
# [12] = biological target: Neu5Ac(a2-3)Gal(b1-4)[Fuc(a1-3)]GlcNAc(b1-6)[Neu5Ac(a2-3)Gal(b1-3)]GalNAc
# In short: as §1
# [13] = biological target: Neu5Ac(a2-3)Gal(b1-4)[Fuc(a1-3)]GlcNAc6S
# In short: as §1
# [14] = biological target: Neu5Ac(a2-3)Gal6S(b1-4)GlcNAc
# In short: as §1
# [15] = biological target: Neu5Ac(a2-3)Gal6S(b1-4)[Fuc(a1-3)]GlcNAc
# In short: as §1
# Neu5Ac(a2-3)GalNAc = biological target: Neu5Ac(a2-3)GalNAc
# In short: as §1
# [16] = biological target: Neu5Ac(a2-3)GalNAc(b1-4)GlcNAc
# In short: as §1
# [17] = biological target: Neu5Ac(a2-3)[GalNAc(b1-4)]Gal(b1-4)Glc
# In short: as §1
# [18] = biological target: Neu5Ac(a2-3)[GalNAc(b1-4)]Gal(b1-4)GlcNAc
# In short: as §1
# [19] = biological target: Neu5Ac(a2-3)[GalNAc(b1-4)]Gal(b1-4)GlcNAc(b1-3)GalNAc
# In short: as §1
# [20] = biological target: Neu5Ac(a2-3)[Neu5Ac(a2-6)]GalNAc
# In short: as §1
# Neu5Ac(a2-6)Gal = biological target: Neu5Ac(a2-6)Gal
# In short: as §1
# [21] = biological target: Neu5Ac(a2-6)Gal(b1-3)GlcNAc(b1-3)[Gal(b1-4)GlcNAc(b1-6)]Gal(b1-4)Glc
# In short: as §1
# Neu5Ac(a2-6)Gal(b1-4)Glc = biological target: Neu5Ac(a2-6)Gal(b1-4)Glc
# In short: as §1
# [22] = biological target: Neu5Ac(a2-6)Gal(b1-4)GlcNAc
# In short: as §1
# [23] = biological target: Neu5Ac(a2-6)Gal(b1-4)GlcNAc(b1-2)Man
# In short: as §1
# [24] = biological target: Neu5Ac(a2-6)Gal(b1-4)GlcNAc(b1-2)Man(a1-3)Man(b1-4)GlcNAc(b1-4)GlcNAc
# In short: as §1
# [25] = biological target: Neu5Ac(a2-6)Gal(b1-4)GlcNAc(b1-2)Man(a1-3)[Gal(b1-4)GlcNAc(b1-2)Man(a1-6)]Man(b1-4)GlcNAc(b1-4)GlcNAc
# In short: as §1
# [26] = biological target: Neu5Ac(a2-6)Gal(b1-4)GlcNAc(b1-2)Man(a1-3)[GlcNAc(b1-2)Man(a1-6)]Man(b1-4)GlcNAc(b1-4)GlcNAc
# In short: as §1
# [27] = biological target: Neu5Ac(a2-6)Gal(b1-4)GlcNAc(b1-2)Man(a1-3)[GlcNAc(b1-4)][Neu5Ac(a2-6)Gal(b1-4)GlcNAc(b1-2)Man(a1-6)]Man(b1-4)GlcNAc(b1-4)GlcNAc
# In short: as §1
# [28] = biological target: Neu5Ac(a2-6)Gal(b1-4)GlcNAc(b1-2)Man(a1-3)[Man(a1-6)]Man(b1-4)GlcNAc(b1-4)GlcNAc
# In short: as §1
# [29] = biological target: Neu5Ac(a2-6)Gal(b1-4)GlcNAc(b1-2)Man(a1-3)[Neu5Ac(a2-3)Gal(b1-4)GlcNAc(b1-2)Man(a1-6)]Man(b1-4)GlcNAc(b1-4)GlcNAc
# In short: as §1
# [30] = biological target: Neu5Ac(a2-6)Gal(b1-4)GlcNAc(b1-2)Man(a1-3)[Neu5Ac(a2-6)Gal(b1-4)GlcNAc(b1-2)Man(a1-6)]Man(b1-4)GlcNAc(b1-4)GlcNAc
# In short: as §1
# [31] = biological target: Neu5Ac(a2-6)Gal(b1-4)GlcNAc(b1-2)Man(a1-3)[Neu5Ac(a2-6)Gal(b1-4)GlcNAc(b1-2)Man(a1-6)]Man(b1-4)GlcNAc(b1-4)[Fuc(a1-6)]GlcNAc
# In short: as §1
# [32] = biological target: Neu5Ac(a2-6)Gal(b1-4)GlcNAc(b1-2)Man(a1-6)Man(b1-4)GlcNAc(b1-4)GlcNAc
# In short: as §1
# [33] = biological target: Neu5Ac(a2-6)Gal(b1-4)GlcNAc(b1-2)Man(a1-6)[Gal(b1-4)GlcNAc(b1-2)Man(a1-3)]Man(b1-4)GlcNAc(b1-4)GlcNAc
# In short: as §1
# [34] = biological target: Neu5Ac(a2-6)Gal(b1-4)GlcNAc(b1-2)Man(a1-6)[GlcNAc(b1-2)Man(a1-3)]Man(b1-4)GlcNAc(b1-4)GlcNAc
# In short: as §1
# [35] = biological target: Neu5Ac(a2-6)Gal(b1-4)GlcNAc(b1-2)Man(a1-6)[Man(a1-3)]Man(b1-4)GlcNAc(b1-4)GlcNAc
# In short: as §1
# [36] = biological target: Neu5Ac(a2-6)Gal(b1-4)GlcNAc(b1-2)[Neu5Ac(a2-6)Gal(b1-4)GlcNAc(b1-4)]Man(a1-3)[GlcNAc(b1-4)][Neu5Ac(a2-6)Gal(b1-4)GlcNAc(b1-2)[Neu5Ac(a2-6)Gal(b1-4)GlcNAc(b1-6)]Man(a1-6)]Man(b1-4)GlcNAc(b1-4)GlcNAc
# In short: as §1
# [37] = biological target: Neu5Ac(a2-6)Gal(b1-4)GlcNAc(b1-2)[Neu5Ac(a2-6)Gal(b1-4)GlcNAc(b1-4)]Man(a1-3)[GlcNAc(b1-4)][Neu5Ac(a2-6)Gal(b1-4)GlcNAc(b1-4)Man(a1-6)]Man(b1-4)GlcNAc(b1-4)GlcNAc
# In short: as §1
# [38] = biological target: Neu5Ac(a2-6)Gal(b1-4)GlcNAc(b1-2)[Neu5Ac(a2-6)Gal(b1-4)GlcNAc(b1-6)]Man(a1-6)[Neu5Ac(a2-6)Gal(b1-4)GlcNAc(b1-2)Man(a1-3)][GlcNAc(b1-4)]Man(b1-4)GlcNAc(b1-4)GlcNAc
# In short: as §1
# [39] = biological target: Neu5Ac(a2-6)Gal(b1-4)GlcNAc(b1-3)Gal(b1-3)GlcNAc
# In short: as §1
# [40] = biological target: Neu5Ac(a2-6)Gal(b1-4)GlcNAc(b1-3)Gal(b1-4)GlcNAc
# In short: as §1
# [41] = biological target: Neu5Ac(a2-6)Gal(b1-4)GlcNAc(b1-3)Gal(b1-4)GlcNAc(b1-2)Man(a1-3)[Neu5Ac(a2-6)Gal(b1-4)GlcNAc(b1-3)Gal(b1-4)GlcNAc(b1-2)Man(a1-6)]GalNAc
# In short: as §1
# [42] = biological target: Neu5Ac(a2-6)Gal(b1-4)GlcNAc(b1-3)Gal(b1-4)GlcNAc(b1-3)Gal(b1-4)GlcNAc
# In short: as §1
# [43] = biological target: Neu5Ac(a2-6)Gal(b1-4)GlcNAc(b1-3)Gal(b1-4)GlcNAc(b1-3)Gal(b1-4)GlcNAc(b1-2)Man(a1-3)[Neu5Ac(a2-6)Gal(b1-4)GlcNAc(b1-3)Gal(b1-4)GlcNAc(b1-3)Gal(b1-4)GlcNAc(b1-2)Man(a1-6)]GalNAc
# In short: as §1
binder,measurement,setting,value
SP16665A-bot-344-23-344 (Bacteroides ovatus) (protein) SDNEFPDFDYQTVYFANQYGLRTIELGESEFVDNTLDNQHKMVIKAAWGGGYTNRNNVVINFKVDESLCDNLYFKDTDQPLVPMPASYYTLASDRIAIPKGQIMAGVEVQLTDDFFADEKSISENYVIPLLMTNVQGADSILQGKPVVENPVLTNAGDWSILPQNFVLYAVKYVNPWHGEYLRRGIDHATVAGTSKDIIRHEQFVENDEVVNISTKSMKDNLLTLKTKDESGKDISYTVRLSFAEDGSCTVHSGSQNVVVSGSGKFVSKGEKNSLGGKDRNAIYLDYTVNLTDNNIQLATKDTLVLRTRNVYGGKSLEVVRK,glycan array binding signal (z-score),[1],-0.192
same,glycan array binding signal (z-score),[2],-0.225
same,glycan array binding signal (z-score),[3],-0.543
same,glycan array binding signal (z-score),[4],-0.405
same,glycan array binding signal (z-score),[5],-0.247
same,glycan array binding signal (z-score),[6],0.057
same,glycan array binding signal (z-score),[7],-0.135
same,glycan array binding signal (z-score),[8],0.266
same,glycan array binding signal (z-score),[9],-0.053
same,glycan array binding signal (z-score),[10],1.76
same,glycan array binding signal (z-score),[11],0.512
same,glycan array binding signal (z-score),[12],0.537
same,glycan array binding signal (z-score),[13],-0.15
same,glycan array binding signal (z-score),[14],-0.364
same,glycan array binding signal (z-score),[15],-0.363
same,glycan array binding signal (z-score),Neu5Ac(a2-3)GalNAc,0.234
same,glycan array binding signal (z-score),[16],-0.166
same,glycan array binding signal (z-score),[17],-0.539
same,glycan array binding signal (z-score),[18],0.103
same,glycan array binding signal (z-score),[19],-0.482
same,glycan array binding signal (z-score),[20],0.465
same,glycan array binding signal (z-score),Neu5Ac(a2-6)Gal,0.1
same,glycan array binding signal (z-score),[21],-0.503
same,glycan array binding signal (z-score),Neu5Ac(a2-6)Gal(b1-4)Glc,-0.226
same,glycan array binding signal (z-score),[22],0.493
same,glycan array binding signal (z-score),[23],-0.623
same,glycan array binding signal (z-score),[24],-0.385
same,glycan array binding signal (z-score),[25],-0.154
same,glycan array binding signal (z-score),[26],-0.135
same,glycan array binding signal (z-score),[27],-0.08
same,glycan array binding signal (z-score),[28],-0.362
same,glycan array binding signal (z-score),[29],-0.229
same,glycan array binding signal (z-score),[30],-0.265
same,glycan array binding signal (z-score),[31],0.106
same,glycan array binding signal (z-score),[32],-0.067
same,glycan array binding signal (z-score),[33],-0.141
same,glycan array binding signal (z-score),[34],-0.499
same,glycan array binding signal (z-score),[35],0.202
same,glycan array binding signal (z-score),[36],0.739
same,glycan array binding signal (z-score),[37],-0.509
same,glycan array binding signal (z-score),[38],-0.263
same,glycan array binding signal (z-score),[39],0.259
same,glycan array binding signal (z-score),[40],-0.68
same,glycan array binding signal (z-score),[41],0.228
same,glycan array binding signal (z-score),[42],-0.319
same,glycan array binding signal (z-score),[43],-0.157
